Reference: ChEMBL document CHEMBL4888484, “Replenishing the malaria drug discovery pipeline: Screening and hit evaluation of the MMV Hit Generation Library 1 (HGL1) against asexual blood stage Plasmodium falciparum ,using a nano luciferase reporter read-out” (2022)
Out of some 150,000 compounds screened, about 540 (0.36%) showed an effect of 50% or more. The list shows a part of the results.

What follows are compounds tested on Plasmodium falciparum (assay: Primary screen in NF54 nanoGlo assay, in single point, at 2uM, 72h; a lower Z score goes with more inhibition). Conditions: timepoint 72 hour.
Type: functional, Erythrocyte

| Structure (SMILES) | % Inhibition [%] | Z score |
| --- | --- | --- |
| Cc1ccc(NC(=O)C2CCN(c3cc(-c4cccc(C)c4)ncn3)CC2)cc1 | -4 | 0.5 |
| C[C@H](NS(=O)(=O)c1sc2c(c1C(=O)O)CCNC2)c1cc(F)cc(F)c1 | -9 | 0.84 |
| CC[C@H](NC(=O)N1CCCCO1)c1ccc(OC(F)F)cc1 | -10 | 0.84 |
| CC1(COc2cccc(CNC3CCCC3)c2)COC1 | 19 | -2.63 |
| Cn1cc(CNC(=O)NC[C@]23C[C@H]2COC32CCC2)nn1 | -5 | 1 |
| O=C(c1ccccc1)c1cc(Cl)ccc1Nc1nc2ccc(Cl)cc2c(-c2ccccc2)c1Cl | -13 | 1.72 |
| COCCn1cnc2cc(NC(=O)C3CCCCC3)cc(C(=O)N(C)Cc3ccco3)c21 | -4 | 0.58 |
| CN1CCO[C@@H]2CN(c3nc(C4CCC4)no3)C[C@@H]21 | 1 | -0.08 |
| CCN1C[C@@H](c2ccccc2)CC2(CCN(c3nc(CO)cs3)CC2)C1 | -13 | 1.84 |
| Cc1cc(C)c(C#N)c(-c2cccc(C(=O)NCc3cc(C4CC4)on3)c2)n1 | -18 | 1.96 |
| Cn1cnc(CCNS(=O)(=O)C2CC2)c1Br | -8 | 1.13 |
| CC(C)c1nnc(NC(=O)CCC(=O)N2CCc3c(cccc3N3CCOC3=O)C2)s1 | -15 | 2.77 |
| CN(CCO[C@@H]1CCCCO1)Cc1cc(Cl)cn1C | -5 | 0.52 |
| CCc1c(C)cc(C(=O)N2CCN(c3ccccc3C)C[C@@H]2C)c(=O)n1C | -1 | 0.25 |
| Cc1cccc(-c2noc(-c3nc4c([nH]3)CCCNC4=O)n2)c1 | -17 | 1.53 |
| CCN1CC2(CCN(c3ccnc(C)n3)CC2)C[C@@H](c2ccccc2)C1=O | -2 | 0.35 |
| COc1ccc(Cl)cc1C(=O)N1CCCN(Cc2ccncc2)CC1 | -13 | 1.64 |
| FC1(F)CCN(c2ncnc3[nH]ccc23)C1 | -3 | 0.37 |
| Cc1cc2ncn(Cc3nc(N)nc(N)n3)c2cc1C | -11 | 0.99 |
| Cc1cc(C2CCC2)nc(N(C)CC2(CO)CCOCC2)n1 | 4 | -0.5 |
| Fc1ccc(-c2n[nH]c3c2CN(c2nnnn2-c2ccccc2)CC3)c(F)c1 | -8 | 1.19 |

| Structure (SMILES) | % Inhibition [%] | Z score |
| --- | --- | --- |
| Cc1cc(C(=O)NCCNc2cnccn2)sc1C | 7 | -1.07 |
| Cc1nc(CN(C)[C@@H](C)c2ccccn2)oc1C | -6 | 0.64 |
| COc1cc2c(cc1OC)CN(C(=O)c1oc(C3CC3)nc1C)CC2 | -5 | 0.65 |
| O=C(NCCCn1cccn1)c1cnc(Cc2c(Cl)cccc2Cl)nc1O | -7 | 1.42 |
| COc1ccc(CNC(=O)Cn2nc3c(-c4nc(-c5ccc(C)cc5)no4)cccn3c2=O)cc1 | -13 | 1.99 |
| Cc1csc(NC(=O)C2CCN(CCC#N)CC2)n1 | -1 | 0.17 |
| COc1ccc(C(=O)O)nc1-c1cc(F)cc2cccnc12 | 0 | -0.08 |
| CC(C)(C)OC(=O)N1CC[C@@](O)(c2ccccc2CO)C1 | -8 | 1.04 |
| C=CCC[C@@H](CN1CCCC1)Oc1nccc(OC)n1 | -12 | 1.3 |
| Cc1cccc(N2CCO[C@H](c3ccco3)C2)n1 | -3 | 0.32 |
| CC(C)c1ccc(-c2noc(Cn3nnn(-c4ccccc4Cl)c3=O)n2)cc1 | -32 | 3.73 |
| CC(=O)N1CCc2ccc(OCc3nc(C(=O)N(C)Cc4ccccc4)cs3)cc2[C@@H]1c1ccccc1 | -6 | 0.54 |
| O=C(NCCC(c1ccccc1)c1ccccc1)C1CCC1 | -11 | 1.52 |
| Cc1nc(CC(=O)N[C@H]2CCN(Cc3cscn3)C[C@@H]2O)cs1 | -14 | 1.82 |
| CC1CCCC(CCN2CCC[C@@H]2C(=O)O)C1 (some centres undefined) | 2 | -0.32 |
| Cc1cc(F)cc(S(=O)(=O)N2CCC[C@H]2c2ccnn2C)c1 | 7 | -0.78 |
| CCCC(=O)N1CCC(N[C@@H](c2cccnc2)c2ccc(C)cc2C)CC1 | -4 | 0.63 |
| FC(F)(F)Cn1ccc(NC2CC3CCC2C3)n1 (centres undefined) | 2 | -0.21 |
| COCc1cc(=O)n(Cc2cccc(F)c2)c(N2CCCC2)n1 | -11 | 1.35 |
| CC1CC(=O)CCC1C(=O)N(Cc1ccccc1)CC(C)(C)C (centres undefined) | 0 | -0.02 |
| COc1nc2c(cc1CNc1cccc(C#N)n1)C(=O)N(C1CCCC1)C2 | -1 | 0.19 |
